Among all 310,000 compounds or so, about 14,000 (4.5%) showed an effect of 50% or more. Effects have a minus sign here. This is one part of the list.
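Also: peak tail current of the secondary pulse compared with the same well before compound.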

In this experiment the target is human ether-à-go-go-related gene (hERG) potassium channel (human, UniProt Q12809). The experiment can be described thus: primary screen, population patch clamp on CHO cells stably expressing hERG.
human ether-à-go-go-related gene (hERG) potassium channel, sequence (Q12809 whole entry, looked up): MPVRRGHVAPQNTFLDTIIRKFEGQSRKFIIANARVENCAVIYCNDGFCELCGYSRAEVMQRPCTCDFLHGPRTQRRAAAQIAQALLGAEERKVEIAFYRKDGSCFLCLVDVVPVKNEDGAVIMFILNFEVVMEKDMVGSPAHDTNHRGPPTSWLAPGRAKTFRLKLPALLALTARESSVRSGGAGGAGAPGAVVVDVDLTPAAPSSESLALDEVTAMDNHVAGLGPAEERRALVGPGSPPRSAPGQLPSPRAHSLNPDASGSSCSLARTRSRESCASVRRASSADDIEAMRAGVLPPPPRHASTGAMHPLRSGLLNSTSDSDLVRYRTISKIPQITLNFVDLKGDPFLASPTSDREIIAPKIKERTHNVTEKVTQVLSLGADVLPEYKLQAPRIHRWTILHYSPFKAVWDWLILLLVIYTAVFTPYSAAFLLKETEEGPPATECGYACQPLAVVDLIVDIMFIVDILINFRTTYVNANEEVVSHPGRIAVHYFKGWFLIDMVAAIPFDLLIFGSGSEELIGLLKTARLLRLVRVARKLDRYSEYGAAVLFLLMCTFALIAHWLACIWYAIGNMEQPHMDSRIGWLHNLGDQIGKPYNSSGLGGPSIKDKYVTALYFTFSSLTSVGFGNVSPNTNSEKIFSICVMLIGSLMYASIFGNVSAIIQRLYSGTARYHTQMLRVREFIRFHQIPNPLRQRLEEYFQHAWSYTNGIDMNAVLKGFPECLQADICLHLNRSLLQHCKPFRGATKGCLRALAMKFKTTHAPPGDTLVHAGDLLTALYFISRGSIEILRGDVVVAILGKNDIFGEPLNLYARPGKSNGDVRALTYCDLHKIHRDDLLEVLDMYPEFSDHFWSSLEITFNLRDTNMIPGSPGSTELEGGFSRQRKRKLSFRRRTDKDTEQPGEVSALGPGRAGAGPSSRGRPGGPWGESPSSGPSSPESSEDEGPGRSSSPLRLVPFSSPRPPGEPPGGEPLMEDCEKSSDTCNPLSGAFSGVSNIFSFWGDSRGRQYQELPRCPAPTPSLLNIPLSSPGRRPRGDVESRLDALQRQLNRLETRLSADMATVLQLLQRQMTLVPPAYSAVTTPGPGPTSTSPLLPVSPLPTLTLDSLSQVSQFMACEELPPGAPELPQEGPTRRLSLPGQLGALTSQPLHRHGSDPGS
As for `O=C1c2ccccc2C(=O)N1CCc1csc(-c2cccc(F)c2)n1`, the “hERG current change (%, negative = inhibition) at 10uM” value is -22.5%. Regarding `Cc1ccc(Nc2nc3ccccc3c(=O)[nH]2)cc1C`, the “hERG current change (%, negative = inhibition) at 10uM” value is on record as 25.2%. Then `CCOC(=O)C1(Cc2cccc(OC)c2)CCCN(C(=O)c2ccccc2C)C1` (stereo not shown), with -34.3%; and `CCN(CC)C(=O)CC(c1ccc(F)cc1)c1ccco1` (stereo not shown), with 10.5%. Then `CC1CCC2(CC1)NC(=O)N(NC(=O)CCl)C2=O` (stereo not shown), with 9.09%; and `COc1ccc2[nH]c3c(c2c1)CCNC3C.Cl` (stereo not shown), with 14.7%; and `COc1cc(CN2CCN(C(=O)c3ccccc3F)CC2)cc(OC)c1OC.O=C(O)C(=O)O`, with 6.56%.

As to `CCOc1ccccc1NC(=O)C(C)N1C(=O)c2ccccc2S1(=O)=O` (stereo not shown), the “hERG current change (%, negative = inhibition) at 10uM” value is reported as -39.4%. Then `CCOC(=O)Cn1c(-c2ccccc2)ccc(C#N)c1=O`, with 8.28%. Then `Fc1cccc(CNc2ncnc3cc(Cl)ccc23)c1F`, with 2.02%. Then `Cc1nc2n(n1)CC(O)CS2` (stereo not shown), with 7.2%; and `COc1ccc(C)cc1S(=O)(=O)N(C)CC(=O)NCc1ccccn1`, with 13.1%; and `CCCNC(=O)Nc1ccccc1SC`, with 8.84%.

In the case of `O=C(CCCN=C1NS(=O)(=O)c2ccccc21)OCC(=O)c1ccc(Br)cc1`, the “hERG current change (%, negative = inhibition) at 10uM” value is given as 11.8%. Then `O=c1cc(O)c2ccc(O)cc2o1`, with 20%; and `Cc1cc(C)c(S(=O)(=O)NCCCN2CCOCC2)cc1Br`, with -13.5%; and `O=C(NN=C1CCCCC1)Nc1ccccc1Cl`, with 3.82%. Regarding `COC(=O)c1c(NC(=O)c2ccccc2)sc(Cc2ccccc2)c1C`, the “hERG current change (%, negative = inhibition) at 10uM” value is 9.04%. Consider `Cc1nn(-c2ccccc2)c(C)c1/C=C/C(=O)OCC(=O)NC1CCS(=O)(=O)C1` (stereo not shown), for which the “hERG current change (%, negative = inhibition) at 10uM” value was 16.7%.

Consider `O=S(=O)(Cc1ccc(Cl)cc1)N1CCN(Cc2ccccc2)CC1`, for which the “hERG current change (%, negative = inhibition) at 10uM” value is listed as -5.96%. The same measure for `Cc1onc(-c2ccccc2Cl)c1C(=O)N1C=CC(C(F)(F)F)=NCC1`: -3.61%. For `CCCCCCCCNc1nc(Cl)nc(NCCN2CCOCC2)n1`, the “hERG current change (%, negative = inhibition) at 10uM” value was found to be 9.29%.

For the molecule `COc1cc2nc(CN(C)Cc3ccc(SC)cc3)[nH]c(=O)c2cc1OC`, the “hERG current change (%, negative = inhibition) at 10uM” value was -16.9%. The same measure for `C/C(CCC1CC(C)OC1=O)=N\NC(N)=S` (stereo not shown): 7.65%; for `CCCn1c(N2CCN(CC(=O)c3c(C)n(C)c4ccccc34)CC2)nc2c1c(=O)[nH]c(=O)n2C`: -7.94%; for `CC(C)c1ccc2[nH]c3c(c2c1)[C@@H]1CCN2C(=O)CCC[C@H](C3)[C@H]12`: -12.8%.

Take `CC(=O)Nc1ccc(S(=O)(=O)N2CCC(C(N)=O)(N3CCCCC3)CC2)cc1`: the “hERG current change (%, negative = inhibition) at 10uM” value stood at 10.1%. With `CC(C)c1ncc(C(O)c2cccc3ccccc23)n1C` (stereo not shown), the “hERG current change (%, negative = inhibition) at 10uM” value is on record as -1.74%.

Take `O=[N+]([O-])c1cccc(S(=O)(=O)c2ccc(NCCOCCO)c([N+](=O)[O-])c2)c1`: the “hERG current change (%, negative = inhibition) at 10uM” value is -38.3%. `Cc1cccc(OCCSc2nc3c([nH]2)c(=N)ncn3Cc2ccccc2)c1`: the “hERG current change (%, negative = inhibition) at 10uM” value is -1.53%.

As to `C/C(=N\NC(=O)Cn1cc([N+](=O)[O-])cn1)c1ccco1`, the “hERG current change (%, negative = inhibition) at 10uM” value turned out to be 2.38%. With `CCOc1ccc(NC(=O)Nc2nc(SCC)ns2)cc1`, the “hERG current change (%, negative = inhibition) at 10uM” value is 13.2%. The same measure for `O=C(/C=C/c1ccc(Cl)cc1)OCC(=O)c1ccc[nH]1`: 8.72%; for `COc1ccc(Cl)cc1NC(=O)C1CCN(S(C)(=O)=O)CC1`: 3.72%; for `CCOC(CCNC(=O)c1cn(C)c(=O)c2c1c1ccccc1n2C)OCC`: -4.27%. The same measure for `Cc1ccc(C)c(OCC(=O)N/N=C/c2c(C)nn(-c3ccccc3)c2Cl)c1C`: -0.0873%; for `COCCc1ccc(OCC(O)CNC(C)C)cc1.O=C(O)C(O)C(O)C(=O)O` (stereo not shown): 7.38%; for `CN(C)c1ccc(/C=N/NC(=O)c2ccc(CN3C(=O)c4cccc5cccc3c45)cc2)cc1`: 14.9%. The same measure for `CCC(C)COC(=O)c1ccc(C(=O)O)cc1` (stereo not shown): 2.44%; for `N#CCCN(Cc1cccnc1)S(=O)(=O)c1ccc(S(=O)(=O)NC2CCCCC2)cc1`: 5.37%; for `COc1ccc(-n2c(Cc3cccn3C)nnc2SCC(=O)NCc2ccccc2Cl)cc1`: -40.2%. For the molecule `CCCCN(C1CCS(=O)(=O)C1)S(=O)(=O)c1cc(C)ccc1C` (stereo not shown), the “hERG current change (%, negative = inhibition) at 10uM” value is recorded as -20.9%.

Consider `Cc1c(C(=O)N2CCN(C(=O)c3ccco3)CC2)oc2c(Cl)cccc12`, for which the “hERG current change (%, negative = inhibition) at 10uM” value is -34.3%. Then `CC(C)C(=O)NC(=S)Nc1ccc(S(=O)(=O)Nc2ccccc2)cc1`, with -15.2%; and `O=C(Nc1ccc(Cl)cc1)Nc1nnc(/C=C/c2ccccc2)s1`, with 6.96%. Consider `Cc1cccc(N2CCN(C(c3ccncc3)c3nnnn3C(C)(C)C)CC2)c1C` (stereo not shown), for which the “hERG current change (%, negative = inhibition) at 10uM” value is -23.8%. The same measure for `S=C(Nc1ccc(Cl)cc1Cl)Nn1cnnc1`: 56.7%. For the molecule `COc1ccc(CCNC(=O)c2c(O)c3ccccc3n(C)c2=O)cc1`, the “hERG current change (%, negative = inhibition) at 10uM” value is -12.1%. On to `CCN(CC)CCCN(Cc1cc2cc3c(cc2[nH]c1=O)OCO3)C(=O)Nc1ccccc1OC`, for which the “hERG current change (%, negative = inhibition) at 10uM” value is on record as -10.6%. For the molecule `CC(=O)c1cc2c(cc1NC(=O)CN1CCC(Cc3ccccc3)CC1)OCO2`, the “hERG current change (%, negative = inhibition) at 10uM” value stood at 4.54%.

Take `COc1cc(S(=O)(=O)N(C)C)ccc1Br`: the “hERG current change (%, negative = inhibition) at 10uM” value was 1.52%. The same measure for `CSc1ccccc1C(=O)NCCCn1ccnc1`: 18.2%; for `CCCOc1ccc(C2C(C(=O)c3cc4ccccc4o3)=C(O)C(=O)N2c2cc(C)on2)cc1OC` (stereo not shown): 25.3%. On to `CN(C)S(=O)(=O)c1ccc(NC(=O)N2CCN(c3ccccc3Cl)CC2)cc1`, for which the “hERG current change (%, negative = inhibition) at 10uM” value is 10.1%. With `CCOC(=O)c1sc(-c2ccc(F)cc2)cc1N`, the “hERG current change (%, negative = inhibition) at 10uM” value came to 2%. The same measure for `O=C(CNC(=O)c1ccco1)OCN1C(=O)c2ccccc2C1=O`: 12.3%; for `COc1ccccc1CNC(=O)CSc1nnc2c(n1)[nH]c1ccc(F)cc12`: -44%. In the case of `COCCNC(=O)c1c(N)n(/N=C/c2cccs2)c2nc3ccccc3nc12`, the “hERG current change (%, negative = inhibition) at 10uM” value is on record as -1.97%.

In the case of `COCCN(CCOC)C(=O)CC(=O)N(CCOC)CCOC`, the “hERG current change (%, negative = inhibition) at 10uM” value is 14.4%. The same measure for `NS(=O)(=O)c1ccc(CCNC(=O)COC(=O)Cc2c(F)cccc2Cl)cc1`: 13.5%; for `Fc1ccccc1-c1ccc(/C=N/Nc2nc3ccccc3[nH]2)o1`: -7.27%. The same measure for `COC(=O)Cn1cnc2c(C#N)c3n(c2c1=O)CCCCC3`: -8.01%. Then `Cc1ccc(OCC(=O)N/N=C2\CC(=O)CC(C)(C)C2)c(Br)c1`, with -9.33%.

For `COC(=O)NCC(c1ccco1)N1CCN(c2ccc(OC)cc2)CC1` (stereo not shown), the “hERG current change (%, negative = inhibition) at 10uM” value is 7.52%. The same measure for `O=C(CSc1nnc(-c2n[nH]c3ccccc23)n1-c1ccccc1)Nc1cccc(Cl)c1`: -3.41%; for `COc1ccccc1/C=N/NC(=O)c1ccc(=O)n(C)c1`: 14.1%. Consider `O=C(CCC(=O)Nc1nnc(C2CCCCC2)s1)NCC1CCCO1` (stereo not shown), for which the “hERG current change (%, negative = inhibition) at 10uM” value is on record as 12.9%. Then `Cc1nn(Cc2ccc(Cl)c(Cl)c2)c(C)c1NC(=O)c1cn(-c2ccccc2)nc1-c1ccccc1`, with 3.3%.

On to `Cc1ccc(-n2c(-c3nn(C)cc3Cl)n[nH]c2=S)cc1`, for which the “hERG current change (%, negative = inhibition) at 10uM” value stood at 44.5%. For the molecule `Cc1cccc(N=C2NC(=O)/C(=C/c3cccnc3)S2)c1C`, the “hERG current change (%, negative = inhibition) at 10uM” value is on record as 1.97%. The same measure for `O=C(CN(C(=O)c1csnn1)c1ccccc1)NCc1ccc2c(c1)OCO2`: -36.6%. As for `NC(=O)CC(NC(=O)c1ccccc1)c1ccc(NC2CCCCCCC2)c([N+](=O)[O-])c1` (stereo not shown), the “hERG current change (%, negative = inhibition) at 10uM” value worked out at 13.8%. The same measure for `CCN(c1ccccc1)S(=O)(=O)c1ccc(C(=O)NCCCn2ccnc2)cc1`: 10.5%; for `CCCCN(CC)CCCNC(=O)Cn1nc(Cc2ccncc2)c2ccccc2c1=O`: -11.1%. For the molecule `COc1ccc(NC(=O)CN(C)C(=O)CCCNC(=O)c2ccc(Cl)cc2)cc1`, the “hERG current change (%, negative = inhibition) at 10uM” value is on record as -30.8%. Then `COc1ccc(NC(=O)c2ccc(NC(=O)CSc3nc(N)cc(=O)[nH]3)cc2)cc1`, with 11.9%; and `O=C(Nc1nnc(-c2cc(Cl)ccc2Cl)o1)c1ccco1`, with -36.1%; and `CCOC(=O)C1=C(C)Nc2sc(C(=O)c3ccc(F)cc3)c(N)c2C1c1ccc(C(=O)OC)cc1` (stereo not shown), with 12.6%. As to `CCc1nn(C(C)C(=O)NC(C)CCc2ccco2)c(=O)c2cc3occc3n12` (stereo not shown), the “hERG current change (%, negative = inhibition) at 10uM” value is given as -34.8%. Turning to `COCCN(C(=O)COC(=O)c1oc2ccc(OC)cc2c1C)c1c(N)n(Cc2ccccc2)c(=O)[nH]c1=O`, the “hERG current change (%, negative = inhibition) at 10uM” value is reported as -7.79%.

In the case of `C/C(=N\NS(=O)(=O)c1ccc(C)c([N+](=O)[O-])c1)c1cccs1`, the “hERG current change (%, negative = inhibition) at 10uM” value is reported as 13.8%. For `CCCCNS(=O)(=O)c1ccc2nc(-c3cccnc3)cc(C(=O)NCCCOCC)c2c1`, the “hERG current change (%, negative = inhibition) at 10uM” value is -3.7%. Take `CCC(=O)Nc1ccc(C(=O)N/N=C/c2c(C)[nH]c3ccccc23)cc1`: the “hERG current change (%, negative = inhibition) at 10uM” value was 17.1%. `CNC(=O)COc1ccc(-c2nn(C)c(=O)c3ccccc23)cc1`: the “hERG current change (%, negative = inhibition) at 10uM” value is 9.65%.

`CCOc1ccc(CN2CCN(CCCn3cccn3)CC2CCO)cc1` (stereo not shown): the “hERG current change (%, negative = inhibition) at 10uM” value is given as -80.1%.

For the molecule `CCOC(=O)c1nc(NNC(C)=O)sc1C`, the “hERG current change (%, negative = inhibition) at 10uM” value came out at 12%. Consider `CC1CN(C(=S)Nc2ccccc2)N(c2ccccc2)C1` (stereo not shown), for which the “hERG current change (%, negative = inhibition) at 10uM” value is listed as 3.77%. For `C/C(=N\Nc1ccc([N+](=O)[O-])cc1)c1cccc(N)c1`, the “hERG current change (%, negative = inhibition) at 10uM” value is -22.9%.

The values above are taken from article PMC4336329 (PLoS ONE, 2015).
